Test results: PubChem BioAssay AID1963576 (National Center for Advancing Translational Sciences (NCATS), 2024)
In all, about 46,000 compounds went through this assay and about 60 (0.1%) were called active. Another 3% or so got no clear call; they are omitted. Calls come from the whole dose curve; as a rule, active = well fitted inhibition curve with a large enough effect; inconclusive = small, poorly fitted or top-dose-only effect; inactive = no such curve, though single readings can be large or run the other way. Some of the results follow.

assay: Primary qHTS assay for Inhibitors of ovarian cancer metastasis using an organotypic tumor microenvironment (TME) model.; note: nearly all actives have a fitted effect of over 65% in size;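 for activity change, negative = inhibition: plate controls were DMSO wells for no effect and tomatine positive control wells for full effect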; settings: SKOV3ip1-GFP adhesion/invasion on 3D omental model, fluorescence; series mostly up to 45.8 µM; activity change, negative = inhibition: at the top concentration
Outline: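 Adhesion/invasion was scored as fixed GFP-labeled SKOV3ip1 cell counts (488/509 nm), normalized to DMSO and tomatine controls. Cancer cells in serum-free medium, with four compound doses (0.36-46 umol/L), sat 2 hr at RT then 16 hr at 37 C on a 48 hr fibroblast/mesothelial/ECM culture.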

Activity change, negative = inhibition, inactive:
COc1ccc(C(=O)NCc2ccc3c(c2)CCN3C(=O)c2ccc(C)cc2)cc1 -22.7%
O=C(NCc1ccco1)c1ccc2c(c1)N(Cc1c(F)cccc1Cl)C(=O)c1ccccc1S2 -7.07%
O=C(Cn1cc(SCc2ccccc2F)c2ccccc21)N1CCCCC1 -3.19%
Cc1cc(C)cc(NC(=O)Cc2c(C(=O)O)c(C)cn2C)c1 -0.0625%
COc1ccc(OC)c(NC(=O)c2cc(C3CC3)nc3c2c(C)nn3-c2ccc(C)cc2)c1 -0.686%
COc1ccc(-c2c(C)nn3c(C(F)(F)F)cc(-c4ccccc4)nc23)cc1 5.59%
CCOc1ccc(N(CC)C(=O)c2nn(-c3ccc(OC)cc3)c(=O)c3c2c2ccccc2n3C)cc1 -1.44%
CCc1cc2c(cc(C(=O)OC)n2Cc2nc(-c3ccc(C)cc3)oc2C)s1 33.5%
O=C(CSc1nc2c([nH]c3ccccc32)c(=O)n1-c1cccc(C(F)(F)F)c1)N1CCc2ccccc21 -15.8%
Cc1ccc(CNC(=O)C2CCN(Cc3nc(-c4cccc(Br)c4)oc3C)CC2)cc1 -10.3%
CC(=O)c1cccc(NC(=O)C2CCN(S(=O)(=O)c3ccc4[nH]c(=O)ccc4c3)CC2)c1 -7.05%
COc1ccc(C(=O)Nc2nnc(SCc3cc(=O)n4cccc(C)c4n3)s2)cc1 5.41%
Cc1ccc(CNC(=O)CCCCCn2c(=O)c3sccc3n(CC(=O)Nc3c(C)cc(C)cc3C)c2=O)cc1 -2.48%
CCCOc1ccc(CNC(=O)CCCn2nc(C)c3sc4ccccc4c3c2=O)cc1 -1.8%
CCCSc1ncc(Cl)c(C(=O)Nc2c(C(=O)Nc3ccc(OC)cc3)oc3ccccc23)n1 -4.34%
CCc1ccc(C(=O)N2CCC(c3nc(-c4ccc(S(=O)(=O)N5CCCC5)cc4)no3)CC2)cc1 -11%
O=C(O)c1ccc(CNCc2ccccc2Cl)s1 -18%
Cc1cc(C)cc(NC(=O)CSc2oc(-c3ccco3)nc2S(=O)(=O)c2ccc(Cl)cc2)c1 -23.9%
Cn1nc(C(=O)NCc2ccccc2Cl)c2c1-c1ccccc1S(=O)(=O)C2 0.0933%
CSc1ccc(CNC(=O)C2CCN(c3nc4ccccc4nc3C(F)(F)F)CC2)cc1 7.38%
O=C(Nc1cc(Cl)ccc1Cl)c1cc2nc(-c3ccc4c(c3)OCO4)cc(C(F)(F)F)n2n1 1.75%
Cc1nnc(NC(=O)CSc2nccn2Cc2ccc(Cl)cc2)s1 0.205%
O=C(CSc1cn(CCNC(=O)c2c(F)cccc2F)c2ccccc12)Nc1ccc(F)cc1 9.65%
CCN(CC)CCNC(=O)c1cn(CCOC)c(=O)c2c1c1ccccc1n2C -2.97%
COc1ccc(-n2ncc(C(=O)N3CCN(c4cc(C)ccc4C)CC3)c2C2CCN(C(=O)OC(C)(C)C)CC2)cc1 11.7%
Cc1ccc(Cl)cc1N1CCN(c2ncnc3c2nc2n3CCCCC2)CC1 -25.4%
COc1ccc(Nc2cc(C)c3cc(NC(=O)Cc4ccc(Cl)cc4)ccc3n2)cc1 4.95%
CCN(CC)S(=O)(=O)c1cccc(C(=O)Nc2sc3c(c2C#N)CCC(C)C3)c1 (stereo not drawn) 55.5%
COc1ccc2c(c1)c1c(c(=O)n(-c3ccccc3C)c(=O)n1C)n2C 3.06%
Cc1cc(C)c(S(=O)(=O)N2CCC(N3CCN(Cc4ccccc4)C(=O)C3=O)CC2)c(C)c1 -1.04%
O=C(Nc1ccc(F)c(Cl)c1)N1CCC2(CC1)Oc1ccccc1C(=O)N2Cc1ccccc1F -12.2%
COc1ccccc1N1CCN(C(CNC(=O)C(=O)NCc2ccc(F)cc2)c2cccnc2)CC1 (stereo not drawn) 0.976%
CCS(=O)(=O)c1ncc(Cl)c(C(=O)Nc2c(C(=O)Nc3cccc(C)c3)oc3ccccc23)n1 -8.46%
Cc1ccc(-c2c(C(=O)N3CCN(c4cc(Cl)ccc4C)CC3)oc(=O)c3ccccc23)cc1 -25.4%
COc1ccc(C)cc1NC(=O)c1cc2c(=O)n(Cc3cccnc3)ccc2nc1C -5.93%
Cc1nc2nc(NC(=O)CC(C)C)[nH]n2c(=O)c1Cc1ccccc1 1.87%
CCc1ccccc1NC(=O)Cc1ccc(NC(=O)N2CCCCc3ccccc32)cc1 15%
Cc1ccc(CCNC(=O)c2cc3n(n2)CCCN(Cc2ccc(C)cc2)C3=O)cc1 5.35%
CCc1nnc(SCC(=O)Nc2cc(OC)ccc2OC)nc1CC -6.61%
CCOc1ccc(S(=O)(=O)N(CC(=O)NCCSc2ccc(C)cc2)c2ccccc2)cc1 15.2%
Cn1c(=O)c(=O)n(C)c2cc(N3CCCC3)c(NC(=O)c3ccccc3F)cc21 -1.1%
Cc1ccc(NC(=O)CSc2nc(=O)n(Cc3ccco3)c3c2CCC3)cc1F 7.64%
CCCCn1cc(S(=O)(=O)c2ccc(C)c(C)c2)c(=O)c2cc(F)c(N(CC)CC)cc21 8.16%
COc1ccc(-c2nc(CN3CCC(C(=O)NCCc4ccccc4)CC3)c(C)o2)cc1OC -1.42%
CCC(=O)N1CCc2cc(CNC(=O)c3ccc(OC)cc3)ccc21 -6.63%
Cc1ccc(NC(=O)c2cc(S(=O)(=O)NC3CCCCC3)ccc2F)cc1Cl -30.5%
CCn1nnc2cc(C(=O)Nc3ccc(C)c(Cl)c3)ccc21 -2.41%
CCOc1ccc(-c2nnc(SCC(=O)Nc3ccc(C)cc3Cl)o2)cc1 6.49%
CCC(=O)N1CCc2cc(CNC(=O)Cc3ccc(F)cc3)ccc21 -6.7%
COC(=O)c1ccccc1NC(=O)c1cc(CN2CCCC2)on1 1.93%
Cc1nn(S(=O)(=O)c2ccc(C(C)(C)C)cc2)c(C)c1S(=O)(=O)N1CCC(C)CC1 -25%
Cc1ccc(Cn2c(CNC(=O)Cc3cccc(C)c3)nc3cccnc32)cc1 -12.9%
COc1ccc(OC)c(CCNC(=O)c2cnn(-c3ccc(C)cc3C)c2C2CCN(C(=O)OC(C)(C)C)CC2)c1 1.85%
Cc1c(C(=O)N2CCC(C)CC2)c(S(=O)(=O)Nc2cccc(C(F)(F)F)c2)c(C)n1C 11.7%
COc1ccccc1CNC(=O)c1cnc(SC)nc1C 3.4%
CC(C)N(Cc1ccccc1)C(=O)C1CCCN(c2ncnc3onc(-c4ccc(F)cc4)c23)C1 (stereo not drawn) -2.88%
COCCN1C(=O)c2oc3ccc(C)cc3c(=O)c2C12C(=O)N(C)c1ccccc12 (stereo not drawn) -4.92%
CC(=O)Nc1ccc(NC(=O)C2(c3cccs3)CCOCC2)cc1 0.292%
CC(C)C[C@H](NC(=O)CNC(=O)c1cc(Cl)ccc1Cl)B1OC(=O)CC(CC(=O)O)(C(=O)O)O1 (stereo partly drawn) 8.47%
O=C(Nc1cc(-c2nc3cc(Cl)ccc3o2)ccc1Cl)c1cc([N+](=O)[O-])ccc1N1CCOCC1 0.353%
COc1ccc(NC(=O)c2sc3nc4c(c(-c5ccc(OC)cc5)c3c2N)C(=O)CC(C)(C)C4)cc1 3.52%
COc1ccc(-c2nc3scc(CCNC(=O)c4cccc(Br)c4)n3n2)cc1 -4.94%
CCOC(=O)c1ccc(NC(=O)CC2Nc3ccccc3NC2=O)cc1 (stereo not drawn) -14.6%
CCOC(=O)c1ccc(N2C(=O)c3[nH]nc(-c4ccc(OCC)cc4)c3C2c2cccs2)cc1 (stereo not drawn) -2.6%
Cc1cc2n(n1)CCC(=O)N2Cc1ccc(C(=O)Nc2ccc(F)cc2F)cc1 5.77%
CCOc1cccc2c1Oc1nc(-c3ccccc3)nc(SCC(=O)Nc3ccc(F)cc3)c1C2 7.13%
O=C(c1ccccc1Cl)N1CCCCC1CCN1CCOCC1 (stereo not drawn) 29.7%
Cc1ccc(-c2nnc(Nc3ccc(F)cc3)c3ccccc23)cc1S(=O)(=O)N1CCN(C)CC1 -26.9%
COc1ccccc1OCc1nc(C#N)c(NCc2ccc(C)cc2)o1 -3.31%
CCn1cc(C(=O)O)c(=O)c2cc(F)c(N3CCNCC3)cc21 -4.37%
Cn1c(=O)oc2cc(S(=O)(=O)CCC(=O)NCCc3ccc(Cl)cc3)ccc21 3.97%

outcome, inactive:
Cc1cccc(-n2c(=O)c3ccccc3n(Cc3ccccc3)c2=O)c1
Cc1ccc(-n2nc3ccc(NC(=O)COc4ccccc4)cc3n2)cc1Cl
CCOc1ccc(-n2c(=O)c3c4c(sc3n(CC(=O)NC(C)CC)c2=O)CCCC4)cc1 (stereo not drawn)
COc1cc(Cl)c(C)cc1NC(=O)Cn1ncc2c1-c1cc(C)ccc1OC2
Cc1cccc(CNC(=O)c2ccc3oc(=O)n(Cc4ccccc4)c3c2)c1
O=S(=O)(c1ccc(Br)cc1)c1nnn2c1nc(NCc1ccc3c(c1)OCO3)c1sccc12
COc1ccc(Cl)cc1NC(=O)C1CCN(S(=O)(=O)c2ccc3c(c2)CC(C)N3C(C)=O)CC1 (stereo not drawn)
COc1ccc(CNCc2c(C(=O)O)c(C)n(Cc3ccccc3C)c2C)c(OC)c1
Cc1cccc(Cn2c(COc3ccc(Cl)cc3)nc3ccccc32)c1
O=C(Nc1sc2c(c1C(=O)Nc1cccc(Cl)c1)CCCC2)c1cccs1
CCn1nc(-c2ccccc2)c(-c2ccccc2)c(C(=O)Nc2nc(C)c(C(C)=O)s2)c1=O
Cc1ccc2c(c1)-c1onc(C(=O)N3CCN(c4cc(Cl)ccc4C)CC3)c1CO2
COc1ccc(CNC(=O)Cn2c(=O)ccc3cc(S(=O)(=O)N4CCCC4)ccc32)cc1
CC(=O)c1ccc(N2CCN(S(=O)(=O)c3cc(-c4noc(C)n4)ccc3C)CC2)cc1
CCOC(=O)c1c(NC(=O)COc2ccc(C)cc2C(C)(C)C)sc2c1CCC(C)C2 (stereo not drawn)
COCC(=O)Nc1cccc(-c2nc3cccnc3s2)c1
COC(=O)c1cc2oc3ccccc3c2n1Cc1nc(-c2cccc(C)c2)oc1C
COc1ccc2[nH]cc(CCNC(=O)c3cnn(-c4ccc(C)cc4)c3C3CCN(C(=O)OC(C)(C)C)CC3)c2c1
Cc1cc(-c2ccc(S(=O)(=O)N3CCN(c4ccc(Cl)cc4)CC3)s2)on1
Cn1c(=O)c2sccc2n2c(CCCC(=O)NC3CCCCC3)nnc12
COc1ccc(NCc2cc3cc4c(cc3n(CC(=O)Nc3ccc(C)c(C)c3)c2=O)OCO4)cc1
CC(C)(C)OC(=O)N1CCC(c2c(C(=O)N3CCCCC3)cnn2-c2ccccc2Cl)CC1
